# Assay results published in the supplement of paper PMC8728848.
# Some of the results follow.
# B1: Gal 8 (Mus musculus), Q9JL15 (protein)
# chain: MGGSHHHHHHGMASMLSLNNLQNIIYNPIIPYVGTITEQLKPGSLIVIRGHVPKDSERFQVDFQLGNSLKPRADVAFHFNPRFKRSSCIVCNTLTQEKWGWEEITYDMPFRKEKSFEIVFMVLKNKFQVAVNGRHVLLYAHRISPEQIDTVGIYGKVNIHSIGFRFSSASALPHTLGDLQSMETSALGLTQINRENIQKPGKLQLSLPFEARLNASMGPGRTVVIKGEVNTNARSFNVDLVAGKTRDIALHLNPRLNVKAFVRNSFLQDAWGEEERNITCFPFSSGMYFEMIIYCDVREFKVAINGVHSLEYKHRFKDLSSIDTLSVDGDIRLLDVRSW
# How the values were obtained:
# Assay in all cases: glycan array binding signal (z-score within array); higher = stronger binding
# Conditions in all cases: glycan notation: IUPAC condensed, linker removed
# [1] = biological target: Gal(b1-4)GlcNAc(b1-2)Man(a1-3)[Gal(b1-4)GlcNAc(b1-2)Man(a1-6)]Man(b1-4)GlcNAc(b1-4)GlcNAc
# Outline: (§1)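 From the Consortium for Functional Glycomics database, 3228 arrays were curated, keeping only those whose protein sequence was available. Binding is given as a within-array Z-score averaged across arrays sharing a protein sequence and across linkers. Negative Z-scores can be read as non-binding.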
# [2] = biological target: Gal(b1-4)GlcNAc(b1-2)Man(a1-3)[Gal(b1-4)GlcNAc(b1-2)Man(a1-6)]Man(b1-4)GlcNAc(b1-4)[Fuc(a1-6)]GlcNAc
# Outline: as §1
# [3] = biological target: Gal(b1-4)GlcNAc(b1-2)Man(a1-3)[Gal(b1-4)GlcNAc(b1-2)Man(a1-6)][Gal(b1-4)GlcNAc(b1-4)]Man(b1-4)GlcNAc(b1-4)[Fuc(a1-6)]GlcNAc
# Outline: as §1
# [4] = biological target: Gal(b1-4)GlcNAc(b1-2)Man(a1-3)[Gal(b1-4)GlcNAc(b1-2)Man(a1-6)][GlcNAc(b1-4)]Man(b1-4)GlcNAc(b1-4)[Fuc(a1-6)]GlcNAc
# Outline: as §1
# [5] = biological target: Gal(b1-4)GlcNAc(b1-2)Man(a1-3)[GlcNAc(b1-2)Man(a1-6)]Man(b1-4)GlcNAc(b1-4)GlcNAc
# Outline: as §1
# [6] = biological target: Gal(b1-4)GlcNAc(b1-2)Man(a1-3)[GlcNAc(b1-4)][Gal(b1-4)GlcNAc(b1-2)Man(a1-6)]Man(b1-4)GlcNAc(b1-4)GlcNAc
# Outline: as §1
# [7] = biological target: Gal(b1-4)GlcNAc(b1-2)Man(a1-3)[Man(a1-6)]Man(b1-4)GlcNAc(b1-4)GlcNAc
# Outline: as §1
# [8] = biological target: Gal(b1-4)GlcNAc(b1-2)Man(a1-6)Man(b1-4)GlcNAc(b1-4)GlcNAc
# Outline: as §1
# [9] = biological target: Gal(b1-4)GlcNAc(b1-2)Man(a1-6)[GlcNAc(b1-2)Man(a1-3)]Man(b1-4)GlcNAc(b1-4)GlcNAc
# Outline: as §1
# [10] = biological target: Gal(b1-4)GlcNAc(b1-2)Man(a1-6)[Man(a1-3)]Man(b1-4)GlcNAc(b1-4)GlcNAc
# Outline: as §1
# [11] = biological target: Gal(b1-4)GlcNAc(b1-2)[Gal(b1-4)GlcNAc(b1-4)]Man(a1-3)[Gal(b1-4)GlcNAc(b1-2)Man(a1-6)]Man(b1-4)GlcNAc(b1-4)GlcNAc
# Outline: as §1
# [12] = biological target: Gal(b1-4)GlcNAc(b1-2)[Gal(b1-4)GlcNAc(b1-4)]Man(a1-3)[Gal(b1-4)GlcNAc(b1-2)[Gal(b1-4)GlcNAc(b1-6)]Man(a1-6)]Man(b1-4)GlcNAc(b1-4)GlcNAc
# Outline: as §1
# [13] = biological target: Gal(b1-4)GlcNAc(b1-2)[Gal(b1-4)GlcNAc(b1-4)]Man(a1-3)[GlcNAc(b1-4)][Gal(b1-4)GlcNAc(b1-2)Man(a1-6)]Man(b1-4)GlcNAc(b1-4)GlcNAc
# Outline: as §1
# [14] = biological target: Gal(b1-4)GlcNAc(b1-2)[Gal(b1-4)GlcNAc(b1-4)]Man(a1-3)[GlcNAc(b1-4)][Gal(b1-4)GlcNAc(b1-2)[Gal(b1-4)GlcNAc(b1-6)]Man(a1-6)]Man(b1-4)GlcNAc(b1-4)GlcNAc
# Outline: as §1
# [15] = biological target: Gal(b1-4)GlcNAc(b1-2)[Gal(b1-4)GlcNAc(b1-6)]Man(a1-6)[Gal(b1-4)GlcNAc(b1-2)Man(a1-3)]Man(b1-4)GlcNAc(b1-4)GlcNAc
# Outline: as §1
# [16] = biological target: Gal(b1-4)GlcNAc(b1-2)[Gal(b1-4)GlcNAc(b1-6)]Man(a1-6)[Gal(b1-4)GlcNAc(b1-2)Man(a1-3)]Man(b1-4)GlcNAc(b1-4)[Fuc(a1-6)]GlcNAc
# Outline: as §1
# [17] = biological target: Gal(b1-4)GlcNAc(b1-2)[Gal(b1-4)GlcNAc(b1-6)]Man(a1-6)[GlcNAc(b1-4)][Gal(b1-4)GlcNAc(b1-2)Man(a1-3)]Man(b1-4)GlcNAc(b1-4)GlcNAc
# Outline: as §1
# [18] = biological target: Gal(b1-4)GlcNAc(b1-2)[Gal(b1-4)GlcNAc(b1-6)]Man(a1-6)[GlcNAc(b1-4)][Gal(b1-4)GlcNAc(b1-2)[Gal(b1-4)GlcNAc(b1-4)]Man(a1-3)]Man(b1-4)GlcNAc(b1-4)[Fuc(a1-6)]GlcNAc
# Outline: as §1
# [19] = biological target: Gal(b1-4)GlcNAc(b1-3)Gal(b1-3)GalNAc
# Outline: as §1
binder,measurement,setting,value
B1,glycan array binding signal (z-score),[1],0.201
same,glycan array binding signal (z-score),[2],0.189
same,glycan array binding signal (z-score),[3],0.128
same,glycan array binding signal (z-score),[4],-0.123
same,glycan array binding signal (z-score),[5],-0.043
same,glycan array binding signal (z-score),[6],-0.126
same,glycan array binding signal (z-score),[7],0.172
same,glycan array binding signal (z-score),[8],0.18
same,glycan array binding signal (z-score),[9],-0.108
same,glycan array binding signal (z-score),[10],0.101
same,glycan array binding signal (z-score),[11],0.415
same,glycan array binding signal (z-score),[12],-0.094
same,glycan array binding signal (z-score),[13],0.241
same,glycan array binding signal (z-score),[14],0.292
same,glycan array binding signal (z-score),[15],0.011
same,glycan array binding signal (z-score),[16],0.073
same,glycan array binding signal (z-score),[17],0.011
same,glycan array binding signal (z-score),[18],0.128
same,glycan array binding signal (z-score),[19],0.144
